Results: article PMC12136788
Where a chain is given by its changes, count along the chain named. The list shows a part of the results.

B1: chr8:101932682:101932683:-_ENSG00000164924_ENST00000353245|hu_hu|FALSE|FALSE (ssRNA)
RNA: GGGAGUUCUACAGUCCGACGAUCAGACAUGGAAGCAGUUUUACACUGGCCCUUUUGAAGCCACAAUGUACCAAAAGUACUAUGCCAAACACUUAUAACUUGUAUAAAAAUUCCACAUCCCCAUAUUGGCCACCUCAAGAUGAACAACAGAGGAUUGAGCAUCA
B2: chr17:55758012:55758013:+_ENSG00000153944_ENST00000284073|hu_mus|motif|central (ssRNA)
RNA: GGGAGUUCUACAGUCCGACGAUCUCCUUUUAAAAAACGUCUUGGGAAAAGCAGUUUUUCAUAUUUUAAAUAAAAAUCGGGCGGGAUCAUAACAUUAGAAGCUGUGCACAGAGAGGCUGGUAGGCUGGCAGGGUGCUAAUGUGGCAACAGAGGAUUGAGCAUCA
B3: 184043062_184043288_2805_CDS_ENSG00000114867_ENST00000411531|human|control|control (ssRNA)
RNA: GGGAGUUCUACAGUCCGACGAUCUCGGCGUGGCACCCAAUUGCUCCCUCGCAGAUCCAGCACGUCCUGCAGCAUAAAGCGGAUGCGGGAUGACGUCUUCUUUUCUUUAAUGAUUUUUUCCAUCUGGUUGAAAUACUGAUCCAUCAACAGAGGAUUGAGCAUCA
B4: 91039910_91048664_436_3pUTR_ENSMUSG00000030091_ENSMUST00000032179|mouse|control|control (ssRNA)
RNA: GGGAGUUCUACAGUCCGACGAUCUGCUGAAGGUAUUCCCUUCUGAGUCCAGAGCCUGGAUCUUCAGCUCCAGUGGAGAGUCCUCAAGAUAGAGCUCACGGGUGGUAGAGACAAUCUGAAUGCCGUGGAUGAGAUCAACGAUGGCAACAGAGGAUUGAGCAUCA
B5: chr4:52453130:52453131:+_ENSMUSG00000028312_ENSMUST00000117280|mus_mus|motif|central (ssRNA)
RNA: GGGAGUUCUACAGUCCGACGAUCUCCUCUGUGCAUAGGACUUGAAUCCUUCGAGAAUGAUUGAUUUAACAUACAUUUUCGGAACUGUCUUGGGUUAGUAAGCCUGUUAGGCAACAAGCUACAAGUCACGUCUGUACUCAGGCGCAACAGAGGAUUGAGCAUCA
B6: 55316543_55316663_4966_3pUTR_ENSMUSG00000018583_ENSMUST00000018727|mouse|control|control (ssRNA)
RNA: GGGAGUUCUACAGUCCGACGAUCGGCUCCUUGGCUCAAUACCGUAGGUAUUGCCCGAGGCCCUGCCUGCUCCUGGAAGCCCUGAUUGCUCAACUGCUUCUCACCAUCUCUUCCCCUUAUUACUGGGUCAUAAUUCAAGGCAGACAACAGAGGAUUGAGCAUCA
B7: chr1:60041781:60041782:+_ENSMUSG00000041040_ENSMUST00000036540|mus_hu|mus_mus_mus_hu_False|1_18 (ssRNA)
RNA: GGGAGUUCUACAGUCCGACGAUCAAGUUUACAAUAGUAAAGUAAAUGCAGUAGUGGCAAAUUUUCUUUUAUUUUCCUUCACAAAAGAAAAUCUUUAUAACCCAGUCCUAGUCUUGGCAGAGAAAGCAGCUAUAAAUGCCACUGCAACAGAGGAUUGAGCAUCA
B8: chr1:109605286:109605287:-_ENSG00000197780_ENST00000461096|hu_mus|hu_hu_hu_mus_True|68_88 (ssRNA)
RNA: GGGAGUUCUACAGUCCGACGAUCAAGUUUCAGAGUAACAUUCAGUAUACUUAAAUCAUGCAAUUAUCCUUACUUUAAGCUAAGCAGAAUAAUAAUUUAAUACCGUAAGUGAACUACACACAAAGCCUGAACCGCGAAAAUGGUCAACAGAGGAUUGAGCAUCA
B9: chr1:109605286:109605287:-_ENSG00000197780_ENST00000461096|hu_mus|FALSE|FALSE (ssRNA)
RNA: B8 RNA with U47A, A48C, U51C, A52U, A53U, A54U, U55A, C56A, C72U, U74A
B10: chr14:90870231:90870232:+_ENSG00000198668_ENST00000553542|hu_hu|FALSE|FALSE (ssRNA)
RNA: GGGAGUUCUACAGUCCGACGAUCACGGAUUUCUUCUUCACUAUCUGUAUCUUUCAUUUUUCUAGCCAUCAUAGUCAAAAAUUCGGGGAAGUCAAUGGUGCCAUUACCAUCAGCAUCCACUUCAUUGAUCAUAUCCUGCAAUUCCAACAGAGGAUUGAGCAUCA
B11: chr10:98726024:98726025:+_ENSMUSG00000019960_ENSMUST00000020118|mus_mus|FALSE|FALSE (ssRNA)
RNA: GGGAGUUCUACAGUCCGACGAUCACCCAGUGAAUGAAAUCCAAUUAAUUCGGACUCCGUGCCACUGAGAGGAGAAAAAGGGAAAAGAAAAAAAGUCUAGCGGCUCUUAAUCCUUCCCUCUGAGGCUGCACCUCGGAUCCAACCCAACAGAGGAUUGAGCAUCA
B12: chr7:44244176:44244177:+_ENSG00000106636_ENST00000223369|hu_mus|hu_hu_hu_mus_False|38_78 (ssRNA)
RNA: GGGAGUUCUACAGUCCGACGAUCACUGUCGCUCCGGACGUAGACAUGGCAAAGAUAGUCUUGUUCUUUGACAGAAGCUCUGCUGCCUUUCCCCGAGCGCUCCACAAUCAGUUGACUUGUAAAGGUCAUGAAUUCCUGCACACUCAACAGAGGAUUGAGCAUCA
B13: chr1:109605286:109605287:-_ENSG00000197780_ENST00000461096|hu_mus|hu_hu_hu_mus_True|28_38 (ssRNA)
RNA: GGGAGUUCUACAGUCCGACGAUCAAGUUUCAGAGUAACAUUCAGUAACCUCUUUAAAUGCAAUUAUCCUUAUUAUAAGCUAAGCAGAAUAAUAAUUUAAUACAUAGAGUAAAUACAACACAAAGCCUGAACCGCGAAAAUGGUCAACAGAGGAUUGAGCAUCA
B14: chrX:70927055:70927056:+_ENSMUSG00000019558_ENSMUST00000114465|mus_hu|FALSE|FALSE (ssRNA)
RNA: GGGAGUUCUACAGUCCGACGAUCCCUUUGCCCAGAGGCGCCAUUUACAUCUGGCAUUCACCUUUGCUAAGAGAUAGAGAUCUAUAUAUACUCUCCGUACUCACGCACGCGUGCACUCGCACCCAAGCUCACACAAUUGAUACUCAACAGAGGAUUGAGCAUCA
B15: chr5:138699528:138699529:+_ENSG00000120727_ENST00000265192|hu_mus|motif|central (ssRNA)
RNA: GGGAGUUCUACAGUCCGACGAUCAUCCUCUUCAUGAGAAUGACCGUUAAUAAUCACAUCGUCAUUGAUGAUGCUUGGGCGGGUACUGCUGCGACUUGGAUCUUUCAUGGUUGGUGCUCGUUGUCGUUUUUAACCCAGUGCACGCAACAGAGGAUUGAGCAUCA
B16: chr2:187370222:187370223:+_ENSG00000065548_ENST00000337859|hu_hu|FALSE|FALSE (ssRNA)
RNA: GGGAGUUCUACAGUCCGACGAUCUUUCCUUUUCUUCCAGGCAAGAAAAGAUUCUAGAGUGAUUUUGGUAACAUUUGGACCUAGGGCAGAACGCUCUCUCUCAAUUAGAUCUUCUAAUGAAAUUUCAUCUUCUUUCUCUUCUUUCAACAGAGGAUUGAGCAUCA
B17: 31086903_31087023_3498_3pUTR_ENSG00000092140_ENST00000206595|human|control|control (ssRNA)
RNA: GGGAGUUCUACAGUCCGACGAUCUGGGACUAUAUAUUUUCACAUUGUUAGCACUUUGUUAGUACAGUUACUUUUAGGUAUUGUCUUUUAGUAGCAUUAUUAAAGUUAAAAAAUAAAGGAAACAGAAGUAAAGAGUUUAUAGAACAACAGAGGAUUGAGCAUCA
B18: chr7:135612270:135612271:-_ENSG00000105887_ENST00000393085|hu_mus|hu_hu_hu_mus_False|98_108 (ssRNA)
RNA: GGGAGUUCUACAGUCCGACGAUCGUUUCUGAGAUGUUAAGUAUUACGUACUUCAGUGGAAAACAAAACUUAACCUUUUAUUAAUGCGUGUUGUACCAAAAGCAGACAUUUUAGCUUCAUUUAUUCAAAAAUAUUAACAUUAAGCAACAGAGGAUUGAGCAUCA
B19: chr12:112777701:112777702:+_ENSMUSG00000021282_ENSMUST00000166123|mus_mus|motif|central (ssRNA)
RNA: GGGAGUUCUACAGUCCGACGAUCCGGUCUCUGACAUGAAAAAAUUUUCGCCACUGAGGCUGUAAGCUUCUUGCUUGUAUGCGGUGUUUCCCCAAUACAGGUACCAAUGGCUGCGCAACAGCUCGUUUUCGUCAAAUAAAGACACAACAGAGGAUUGAGCAUCA
B20: chr4:115894766:115894767:+_ENSMUSG00000028698_ENSMUST00000030464|mus_hu|mus_mus_mus_hu_True|8_98 (ssRNA)
RNA: GGGAGUUCUACAGUCCGACGAUCUUCCACACGGAAAGUACUUGGGGGUUUUCCAACGGCCAGUACCAGUCCGGCCAAACUACCCGAACAGGGUCCUCCCCCUCUCUCCUACAGAACACAACAAAAUAACAAAAUACUUUCAAGCAACAGAGGAUUGAGCAUCA
B21: chr16:94664741:94664742:+_ENSMUSG00000040785_ENSMUST00000117648|mus_hu|mus_mus_mus_hu_False|78_98 (ssRNA)
RNA: GGGAGUUCUACAGUCCGACGAUCUGGUACUGAUCUUUGCAUUGGAUAUUCAGGAGAAAUGUUGGCCAAGGGUGUAUAUAUGCUGGUGUACUGGGGCAAACCUGGUAACACGUUUAUGUAUGCUGGCGGUGUCUGGGUGAUAUCCAACAGAGGAUUGAGCAUCA
B22: chr7:135612270:135612271:-_ENSG00000105887_ENST00000393085|hu_mus|hu_hu_hu_mus_False|8_108 (ssRNA)
RNA: GGGAGUUCUACAGUCCGACGAUCGUUUCUGAGAUGUAUGUUAAAUAGUACUUCAGUGGAAAACAAAACUUAACCUUUUAUUAAUGCGUGUUGUACCAAAAGCAGACAUUUUAGCUUCAUUUAUUCACUCAAAAUAUCAUUAAGCAACAGAGGAUUGAGCAUCA

Each binder was assayed against T1, UNK ZnF1-3 (human, UniProt Q9C0B0 31-174) (assay: nsRBNS (natural sequence RNA bind-n-seq); RBNS binding buffer (assumed for nsRBNS): 25 mM Tris pH 7.5, 150 mM KCl, 3 mM MgCl2, 0.01% Triton X-100, 500 ug/ml BSA, 20 U/ml SUPERase-In, 4 C; UNK is unkempt and MSI1 is Musashi-1; names of the RNAs are library labels; protein concentration not given here; high values mean tight binding).
T1 sequence: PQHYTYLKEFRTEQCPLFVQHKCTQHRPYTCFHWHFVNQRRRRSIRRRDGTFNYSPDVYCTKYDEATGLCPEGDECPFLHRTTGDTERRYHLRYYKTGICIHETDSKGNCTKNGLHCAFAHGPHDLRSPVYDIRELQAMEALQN

Binder	binding signal [enrichment R]
B1	1.44
B2	2.38
B3	0.794
B4	1.19
B5	0.564
B6	0.716
B7	0.833
B8	0.726
B9	0.809
B10	0.642
B11	0.638
B12	0.872
B13	0.823
B14	0.817
B15	0.55
B16	0.614
B17	2
B18	0.882
B19	1.17
B20	1.32
B21	0.899
B22	0.607
